No constants are given. Whether binding was seen depends on the method and setting. In cells and extracts the contact can be indirect. Some entries that bind do so weakly or less than the wild type. For some assays here: Where a sequence is shown, tags or fusion partners need not be part of it. Values belong to the molecule of their own block, whether it stands above or below them.
How the values were obtained:
SHIP2-His (mouse) = target: T1, SHIP2-His (mouse) (UniProt Q6P549); assay: co-IP; cells co-transfected with pSHIP2-His and pFcγRIIb WT-GFP or Y273F-GFP for 36 hr; IP with anti-His antibody, protein G-Sepharose, 12 hr at 4°C; blot anti-GFP and anti-His
T1 sequence: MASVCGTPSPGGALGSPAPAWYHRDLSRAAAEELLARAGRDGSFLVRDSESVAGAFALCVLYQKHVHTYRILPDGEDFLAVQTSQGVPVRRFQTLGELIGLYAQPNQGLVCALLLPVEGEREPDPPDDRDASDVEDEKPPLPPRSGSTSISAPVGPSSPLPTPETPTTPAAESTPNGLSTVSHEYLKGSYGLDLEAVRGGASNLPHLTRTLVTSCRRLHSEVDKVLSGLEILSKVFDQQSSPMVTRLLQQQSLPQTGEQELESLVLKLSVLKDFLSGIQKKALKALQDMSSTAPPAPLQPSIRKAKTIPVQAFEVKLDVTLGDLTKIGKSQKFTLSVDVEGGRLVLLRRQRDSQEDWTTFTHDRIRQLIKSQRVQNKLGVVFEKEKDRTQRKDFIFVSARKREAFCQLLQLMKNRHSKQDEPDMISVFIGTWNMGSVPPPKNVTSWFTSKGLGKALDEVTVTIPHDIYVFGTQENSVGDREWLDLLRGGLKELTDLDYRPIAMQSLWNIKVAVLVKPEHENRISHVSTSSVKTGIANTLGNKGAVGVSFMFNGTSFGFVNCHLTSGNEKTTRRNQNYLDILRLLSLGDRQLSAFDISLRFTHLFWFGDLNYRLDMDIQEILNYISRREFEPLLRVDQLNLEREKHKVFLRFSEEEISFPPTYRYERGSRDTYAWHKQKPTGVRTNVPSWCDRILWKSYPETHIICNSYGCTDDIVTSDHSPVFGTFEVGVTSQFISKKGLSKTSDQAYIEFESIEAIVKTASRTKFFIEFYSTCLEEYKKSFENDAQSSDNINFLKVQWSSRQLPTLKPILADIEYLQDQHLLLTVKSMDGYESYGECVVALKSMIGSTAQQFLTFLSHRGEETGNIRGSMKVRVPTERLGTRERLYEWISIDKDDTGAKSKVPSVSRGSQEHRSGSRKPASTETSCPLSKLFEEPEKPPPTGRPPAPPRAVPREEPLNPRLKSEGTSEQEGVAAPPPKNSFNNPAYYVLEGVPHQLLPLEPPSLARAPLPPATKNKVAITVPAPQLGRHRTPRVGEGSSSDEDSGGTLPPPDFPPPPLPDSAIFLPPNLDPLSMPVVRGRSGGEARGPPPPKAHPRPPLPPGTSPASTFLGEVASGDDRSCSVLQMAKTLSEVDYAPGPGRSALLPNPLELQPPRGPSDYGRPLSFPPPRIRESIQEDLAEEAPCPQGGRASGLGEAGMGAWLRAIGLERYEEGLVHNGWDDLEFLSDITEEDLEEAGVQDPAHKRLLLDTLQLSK

Sequences of proteins named here, by UniProt entry; tags and fusion partners are left off. A change or cut given only in a name is not applied to a line headed by its entry. A line that says so, or that is headed by a name, gives the form on record, which may keep a tag or linker.
FcγRIIb-GFP (P31994-2, form named): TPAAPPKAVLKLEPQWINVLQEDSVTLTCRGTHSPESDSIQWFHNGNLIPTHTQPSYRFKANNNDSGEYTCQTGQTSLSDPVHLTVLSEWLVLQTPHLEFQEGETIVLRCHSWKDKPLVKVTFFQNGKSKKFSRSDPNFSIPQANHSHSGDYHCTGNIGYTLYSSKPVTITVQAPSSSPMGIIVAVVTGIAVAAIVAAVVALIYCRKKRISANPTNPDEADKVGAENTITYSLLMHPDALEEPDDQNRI
FcγRIIb Y273F-GFP (P31994-2, form named): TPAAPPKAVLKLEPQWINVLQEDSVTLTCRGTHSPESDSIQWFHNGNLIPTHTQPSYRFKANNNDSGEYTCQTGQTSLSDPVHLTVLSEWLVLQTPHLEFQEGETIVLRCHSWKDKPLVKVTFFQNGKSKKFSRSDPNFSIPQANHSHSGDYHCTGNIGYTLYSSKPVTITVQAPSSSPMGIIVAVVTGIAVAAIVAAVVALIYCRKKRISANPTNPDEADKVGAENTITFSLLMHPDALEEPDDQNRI

[1] = target: endogenous FcγRIIb in SH-SY5Y cells (human (endogenous in SH-SY5Y)) (UniProt P31994); assay: co-IP; endogenous proteins; SH-SY5Y cells incubated with 1 μM Aβ_(1-42) oligomers for 24 hr; IP with anti-FcγRIIb or anti-SHIP2 antibody in IP buffer (50 mM Tris-Cl pH 7.4, 150 mM NaCl, 1% Triton X-100, 1 mM EDTA), 12 hr at 4°C, protein G-Sepharose
[2] = target: FcγRIIb Y273F-GFP (human) (UniProt P31994); assay: co-IP; reverse: cells co-transfected with pSHIP2-His and pFcγRIIb WT-GFP or Y273F-GFP for 36 hr; IP with anti-GFP antibody, protein G-Sepharose, 12 hr at 4°C; blot anti-GFP and anti-His
FcγRIIb-GFP (human) = FcγRIIb-GFP (human) (UniProt P31994); assay: as above

binding (SHIP2-His (mouse)): binds
Molecule: FcγRIIb-GFP (from UniProt P31994-2 43-291) (receptor)

binding (SHIP2-His (mouse)): no binding
Molecule: FcγRIIb Y273F-GFP (from UniProt P31994-2 43-291) (receptor)

binding [1]: binds
B1: endogenous SHIP2 in SH-SY5Y cells (enzyme, UniProt O15357 1-1258)
chain: MASACGAPGPGGALGSQAPSWYHRDLSRAAAEELLARAGRDGSFLVRDSESVAGAFALCVLYQKHVHTYRILPDGEDFLAVQTSQGVPVRRFQTLGELIGLYAQPNQGLVCALLLPVEGEREPDPPDDRDASDGEDEKPPLPPRSGSTSISAPTGPSSPLPAPETPTAPAAESAPNGLSTVSHDYLKGSYGLDLEAVRGGASHLPHLTRTLATSCRRLHSEVDKVLSGLEILSKVFDQQSSPMVTRLLQQQNLPQTGEQELESLVLKLSVLKDFLSGIQKKALKALQDMSSTAPPAPQPSTRKAKTIPVQAFEVKLDVTLGDLTKIGKSQKFTLSVDVEGGRLVLLRRQRDSQEDWTTFTHDRIRQLIKSQRVQNKLGVVFEKEKDRTQRKDFIFVSARKREAFCQLLQLMKNKHSKQDEPDMISVFIGTWNMGSVPPPKNVTSWFTSKGLGKTLDEVTVTIPHDIYVFGTQENSVGDREWLDLLRGGLKELTDLDYRPIAMQSLWNIKVAVLVKPEHENRISHVSTSSVKTGIANTLGNKGAVGVSFMFNGTSFGFVNCHLTSGNEKTARRNQNYLDILRLLSLGDRQLNAFDISLRFTHLFWFGDLNYRLDMDIQEILNYISRKEFEPLLRVDQLNLEREKHKVFLRFSEEEISFPPTYRYERGSRDTYAWHKQKPTGVRTNVPSWCDRILWKSYPETHIICNSYGCTDDIVTSDHSPVFGTFEVGVTSQFISKKGLSKTSDQAYIEFESIEAIVKTASRTKFFIEFYSTCLEEYKKSFENDAQSSDNINFLKVQWSSRQLPTLKPILADIEYLQDQHLLLTVKSMDGYESYGECVVALKSMIGSTAQQFLTFLSHRGEETGNIRGSMKVRVPTERLGTRERLYEWISIDKDEAGAKSKAPSVSRGSQEPRSGSRKPAFTEASCPLSRLFEEPEKPPPTGRPPAPPRAAPREEPLTPRLKPEGAPEPEGVAAPPPKNSFNNPAYYVLEGVPHQLLPPEPPSPARAPVPSATKNKVAITVPAPQLGHHRHPRVGEGSSSDEESGGTLPPPDFPPPPLPDSAIFLPPSLDPLPGPVVRGRGGAEARGPPPPKAHPRPPLPPGPSPASTFLGEVASGDDRSCSVLQMAKTLSEVDYAPAGPARSALLPGPLELQPPRGLPSDYGRPLSFPPPRIRESIQEDLAEEAPCLQGGRASGLGEAGMSAWLRAIGLERYEEGLVHNGWDDLEFLSDITEEDLEEAGVQDPAHKRLLLDTLQLSK

binding [2]: no binding | binding (FcγRIIb-GFP (human)): binds
B2: SHIP2-His (enzyme, UniProt Q6P549 1-1257)
chain: T1 sequence

Source: paper PMC5106215
